In this assay the test system is experimental autoimmune encephalomyelitis. It is filed as in vivo, rat. Particulars: AT-EAE.

As for “Monovalent aKLH HC-ShK(1-35 Q16K) Ab: anti-KLH IgG2 antibody with [Lys16]ShK fused to the C-terminus of one heavy chain”, the “Effect on disease onset and severity” value is “delayed disease onset and caused dose-dependent reduction in disease severity”.

The record behind these values is patent US20120121591A1 (priority 2009, published 2012).
